The supplement of paper PMC11417369
± gives the standard deviation of the averaged measurements. This is one part of the list.

test system: PfAP2-I AP2 domain 3 (GST-tagged); assay: gcPBM binding intensity (ln(normalized median fluorescence intensity)); higher = stronger DNA binding
Procedure, shortened: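 GST-tagged P. falciparum DNA-binding domains, expressed in E. coli (about 25 μg on average), were applied for 1 h to an Agilent 4 × 180k array of primer-extended double-stranded 36-bp intergenic genomic probes plus negative controls. The binding buffer was 1× PBS with 1% milk, 0.2 mg/ml BSA, 0.5% salmon testes DNA and 0.03% Triton X-100. Bound protein was detected with Alexa488 anti-GST antibody and scanned at 488 nm. Binding intensity is the highest Masliner-normalised natural-log median intensity across replicate spots of either probe orientation.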

Row | Sequence | gcPBM binding intensity (ln)
1 | AATGCAAAGGTGAAAGAACACACAAAAAAAAAAAAA [CACACA_site9333] | 7.88 ± 0.88
2 | GAAACATACATTTTTTGTCCGTAAGTATTATAATAA [XGTACX_site3273] | 7.78 ± 0.42
3 | ATACATCAAGGACACACACACACACCCACACCCACA [CACACA_site8013] | 8.19 ± 0.34
4 | CACATAAAAATTGTGTTGCACTTTTATTCTTATATC | 8.82 ± 0.16
5 | CTATGAATAGGAAAAAGTACTAAACCTTTATATATA [XGTACX_site5022] | 7.55 ± 0.42
6 | ATTTTGCCTGACCCATGTACATATTATTTTTTGCAT [XGTACX_site2258] | 8.46 ± 0.86
7 | AACTTACTTGGACATACACACATATATATATATATA [CACACA_site2978] | 9.48 ± 0.52
8 | TTTATATATTTTAGGTGTACATAAATTTTTATATAT [XGTACX_site5597] | 7.97 ± 0.19
9 | TCAAATATTCATAAATGTACATTTATTTTTCTCCTT [XGTACX_site5827] | 7.75 ± 0.74
10 | TAACTTAATATTAATGCACACAATTTATATATATAT [CACACA_site3903] | 11.3 ± 0.38
11 | AGTAGAATATCCCCTACACACCCAAATAATTTACAA [CACACA_site8339] | 8.22 ± 0.67
12 | TGTAGAAGAACCCATGCATGCAGTATGAAAAAAAAA [TGCATGCA_site907] | 10.1 ± 0.54
13 | AAAAAAAGAAAAAAACGTACATGAAAATTTTTTGTT [XGTACX_site5135] | 7.91 ± 0.71
14 | CTATATAAAAAAATTGCACACATAAATATATACATA [CACACA_site8325] | 8.35 ± 0.11
15 | ATAAATCCCAAAACCTTGCAAGACAACGTTTGATCA [CACACA_negctrl_site1327] | 7.66 ± 0.73
16 | TTCTAAAATTATATAGTGCAATTATTTTATTTTTCT | 9.86 ± 0.014
17 | AAAAAAATAAAACACATACATATATGTATATATATA [GTGCAC_negctrl_site390] | 8.72 ± 0.16
18 | TAAATATATATATAAGTGCATTATATATATATATAA | 11.2 ± 0.57
19 | ATTAATAATTATTATGGTACACATGTAACTACTCTC [XGTACX_site198] | 7.92 ± 0.32
20 | ATCTCTTACATATTCACACACATATAAATAACTACA [CACACA_site6816] | 8.39 ± 0.49
21 | ATATGATAGTTTATATGTACATAAATAAATACATAC [XGTACX_site2917] | 7.92 ± 0.33
22 | AAAGAAAAAAAATAATGTACATATGTATTTGAGAAA [XGTACX_site3571] | 7.88 ± 0.54
23 | AAAAATATGAAAGTAACTAAGTTGTTATTGATAACA [CACACA_negctrl_site1608] | 7.45 ± 0.72
24 | ACGTTAGGCTTATTTGCACACTTGTATTATAATTTT [CACACA_site1317] | 9.96 ± 0.31
25 | ATATTATCACAAGGTGGTACACAAAAAAAAAAAAAA [XGTACX_site8224] | 8.625 ± 0.049
